Experimental findings from ChEMBL document CHEMBL4888484, “Replenishing the malaria drug discovery pipeline: Screening and hit evaluation of the MMV Hit Generation Library 1 (HGL1) against asexual blood stage Plasmodium falciparum ,using a nano luciferase reporter read-out” (2022) are described below.

Screen size: about 150,000 compounds; about 540 (0.36%) showed an effect of 50% or more. Some of the results follow.

The subject of this experiment is Plasmodium falciparum. Kind of experiment: Primary screen in NF54 nanoGlo assay, in single point, at 2uM, 72h; a lower Z score goes with more inhibition. The experiment is classed as functional, Erythrocyte. As to conditions: timepoint 72 hour.
In general, % Inhibition refers to the drop in the measured response relative to a control, in per cent. For `C[C@H](NC(=O)C1(c2cccs2)CCCCC1)C(=O)N(C)C`, the “% Inhibition” value was -9% and the Z score was found to be 1.69.

`Cc1ccc(CCC(=O)Nc2nc3c(cc2C#N)CCC3)o1`: the “% Inhibition” value is listed as -3% and the Z score came out at 0.31.

Turning to `CS(=O)(=O)N1C[C@H]2CC[C@@H](C1)N(C(=O)c1ccccc1OC(F)F)C2`, the “% Inhibition” value worked out at 1% and the Z score is listed as -0.22.

As for `CCOc1ncccc1CNC(=O)c1cc(Br)c[nH]1`, the “% Inhibition” value was 6% and the Z score is -0.5.

In the case of `CCS(=O)(=O)NC[C@H](C)N1CCC(Oc2cccc(Cl)c2)CC1`, the “% Inhibition” value was -10% and the Z score amounted to 1.56.

As for `CC(F)CCNC(=O)N1CCO[C@@H](C)C1` (stereo not given in full), the “% Inhibition” value is given as 9% and the Z score is given as -1.1.

For the molecule `Cc1c[nH]c(CNc2cc(C3CC3)nc(C3CC3)n2)n1`, the “% Inhibition” value is 1% and the Z score is -0.08.

For `CC(C)[C@H](NC(=O)CCN1C(=O)CCC1=O)c1cccs1`, the “% Inhibition” value is on record as -5% and the Z score came to 0.89.

As for `O=C(CCc1ccccc1)N1CCCN(C(=O)Nc2ccc(S(=O)(=O)N3CCOCC3)s2)CC1`, the “% Inhibition” value is -6% and the Z score is on record as 0.82.

As to `Cc1ccc2[nH]c(-c3nc([C@H]4CCOC4)no3)cc2c1`, the “% Inhibition” value is recorded as -16% and the Z score worked out at 1.86.

Turning to `CCOc1ncccc1C(=O)N1C[C@@H](CN2C[C@@H](C)O[C@@H](C)C2)[C@@H](CO)C1`, the “% Inhibition” value was 8% and the Z score was -0.7.

As to `COCCN1C(=O)CC[C@@H](C(=O)NCC2CCCCC2)[C@H]1c1ccc(C)cc1`, the “% Inhibition” value is -5% and the Z score was found to be 0.64.

Take `CC(C)COC1CCN(CC(=O)NC2CCOCC2)CC1`: the “% Inhibition” value is on record as -3% and the Z score is 0.39.

Consider `Clc1cnccc1-c1csc(COCc2ccccc2)n1`, for which the “% Inhibition” value is listed as -8% and the Z score was found to be 0.69.

For `CC/C=C(/CN1C[C@H](OC)[C@@H](O)C1)c1ccccc1`, the “% Inhibition” value is -5% and the Z score came out at 0.79.

Regarding `Cc1noc(-c2c(C)sc(C)c2S(=O)(=O)N2CCN(c3cccc(Cl)c3)CC2)c1C`, the “% Inhibition” value is recorded as -10% and the Z score came out at 1.67.

Turning to `COCCCN/C(=N\c1cccc(C(=O)O)c1)N1CCN(C(c2ccccc2)c2ccccc2)CC1`, the “% Inhibition” value was -11% and the Z score was determined as 1.8.

Consider `C=CC[C@H](CC)NC(=O)NCc1nccs1`, for which the “% Inhibition” value came to 12% and the Z score is reported as -2.14.

Turning to `COc1ccccc1C1(CC(=O)N2CCCC2c2nccs2)CC(=O)N(C2CCCC2)C1=O` (stereo not given), the “% Inhibition” value was 5% and the Z score is -0.66.

`COc1ccc(-c2c(C)n[nH]c2C)cn1`: the “% Inhibition” value was 0% and the Z score amounted to 0.05.

Turning to `C[C@H](NCc1cc2n(n1)CCCC2)c1nccs1`, the “% Inhibition” value is -1% and the Z score stood at 0.21.

Take `c1cncc(COC2CCN(Cc3cscn3)CC2)c1`: the “% Inhibition” value is listed as -8% and the Z score was determined as 1.4.

Turning to `CC(=O)NCC[C@H]1Cc2ccccc2C2(CCN(S(C)(=O)=O)CC2)O1`, the “% Inhibition” value was -3% and the Z score was 0.41.

For `O=C(Nc1ncc(Cc2ccccc2)s1)C1=Cc2ccccc2OC1`, the “% Inhibition” value was 2% and the Z score was -0.23.

With `O=C(Nc1cc(-n2cncn2)ncn1)c1cc(Cl)ccc1Cl`, the “% Inhibition” value is on record as -15% and the Z score was determined as 2.49.

For the molecule `CCc1ncnc(NCCc2nnc3n2CCCC3)c1F`, the “% Inhibition” value is reported as -11% and the Z score amounted to 1.29.

In the case of `Cc1ccc(S(=O)(=O)N2C[C@H]3C[C@H](O)[C@H](O)C[C@H]3C2)c(F)c1`, the “% Inhibition” value turned out to be 1% and the Z score is -0.14.

Consider `Cc1cc(-c2ccc(S(=O)(=O)Nc3ccc(F)c(Cl)c3)o2)on1`, for which the “% Inhibition” value was found to be 2% and the Z score is on record as -0.35.

`Cc1cccc(CN2CCC([C@]3(CCc4ccccc4)NC(=O)NC3=O)CC2)n1`: the “% Inhibition” value is recorded as -8% and the Z score is recorded as 1.22.

On to `COc1ccc(CNC(=O)Cn2nc3c4cccc(C)c4ncn3c2=O)cc1`, for which the “% Inhibition” value is -5% and the Z score turned out to be 0.85.

For the molecule `CC1(N)CCCCC1C(=O)N1CCc2c(cnn2-c2ccccc2)C1` (stereo not given), the “% Inhibition” value is given as 2% and the Z score is recorded as -0.18.

Take `c1cc2ccc(NCCN3CCOCC3)nc2[nH]1`: the “% Inhibition” value worked out at 1% and the Z score is listed as -0.23.

In the case of `C#CCOc1ccccc1CN(C)CCNS(C)(=O)=O`, the “% Inhibition” value is reported as -7% and the Z score is 0.67.

Take `CCOC1CC(C(=O)Nc2ccc(C)c(CC)c2)C1` (stereo not given): the “% Inhibition” value is recorded as -11% and the Z score amounted to 2.14.

With `O=C(NCCc1c[nH]c2cc(F)c(Cl)cc12)[C@H]1CCc2nnnn2CC1`, the “% Inhibition” value was -2% and the Z score was 0.23.
